Source: PubChem BioAssay AID504832 (National Center for Advancing Translational Sciences (NCATS), 2011)
Hit rate of the full screen: of about 310,000 compounds, about 18,000 (5.8%) were called active. Inconclusive results, whose numbers are uncertain, are shown with a selection of clear calls. The call rests on the fitted dose curve; in most records, active means well fitted inhibition curve with a large enough effect; inconclusive means small, poorly fitted or top-dose-only effect, or another doubt; inactive means no such curve, though single readings can be large or run the other way. Potencies of inconclusive entries are left out as doubtful fits.

Test: Primary qHTS for delayed death inhibitors of the malarial parasite plastid, 48 hour incubation
Conditions: P. falciparum luciferase growth in erythrocytes; series mostly up to 28.7 µM
In short: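 Luciferase-expressing parasites in RBCs, 2% Hct / 0.1% parasitemia final; RPMI 1640 + 0.5% Albumax; 37 C, 5% CO2, one generation; luminescence read-out, lower signal = inhibition.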
Potency means the concentration at half of the fitted maximal effect; tags describe the fitted curve by direction and shape.

Row | SMILES | Potency
1 | COc1ccc(C)cc1NC(=O)C1CCN(S(=O)(=O)c2ccc3c(c2)C(C)(C)C(=O)N3C)CC1 | inconclusive [inhibitor, partial curve, poor fit]
2 | COc1ccc(Cl)cc1CSc1ncn[nH]1 | inconclusive [inhibitor, full curve]
3 | CSc1ccccc1NC(=O)CN(c1ccccc1Br)S(C)(=O)=O | inactive
4 | CN1CCCN(C(=O)c2cc(=O)[nH]c3ccccc23)c2nc3ccccc3nc21 | inconclusive [inhibitor, partial curve, poor fit]
5 | CCCC(=O)NC(c1ccc(OCC)cc1)c1ccc(OC)c(OC)c1 (configuration not stated) | inconclusive [inhibitor, partial curve, poor fit]
6 | Cc1ccc(-c2nnc(N3CCN(C(=O)Cn4c(=O)n(C)c5ccccc54)CC3)c3ccccc23)cc1 | inactive
7 | COc1ccc(Cn2c(=O)[nH]c3cc(C(=O)N4CCN(c5ccccc5F)CC4)ccc3c2=O)cc1 | active: 11.7 µM
8 | CCCCc1ccc(-c2c(C#N)c(N)nc3c2CCCC3)s1 | inconclusive [inhibitor, partial curve, poor fit]
9 | COC(=O)[C@H](CCSC)NC(=O)c1cc2c(cn1)[nH]c1ccccc12 | inconclusive [inhibitor, single point]
10 | Cc1ccc(Cl)cc1N1CCN(C(=O)C2CCCN(S(=O)(=O)c3cnc[nH]3)C2)CC1 (configuration not stated) | inconclusive [inhibitor, single point]
11 | CC(C)OP(=O)(OC(C)C)C(Nc1ccccc1)c1ccccc1C(F)(F)F (configuration not stated) | inconclusive [inhibitor, single point]
12 | CC(NC(=O)CCNC(=O)c1ccccc1Cl)c1ccc(-n2ccnc2)cc1 (configuration not stated) | inconclusive [inhibitor, partial curve]
13 | CC(C)(C)c1ccc(S(=O)(=O)NNC(=O)C2CCN(Cc3cccc(F)c3)CC2)cc1 | inactive
14 | Cc1ccc(S(=O)(=O)c2cc3c(=O)n4ccccc4nc3n(C3CCCC3)c2=N)cc1 | active: 5.22 µM
15 | C=CCC1(CC=C)CCCN1C(=O)Cn1nnnc1CN(C)C(C)C | inactive
16 | COc1cc([N+](=O)[O-])ccc1NC(=O)Nc1ccc(C(=O)N2CCCC2)cc1 | inconclusive [inhibitor, single point]
17 | O=C(O)c1c2c(nc3ccc(S(=O)(=O)N4CCC(C(=O)NCc5ccccc5Cl)CC4)cc13)CCCC2 | inactive
18 | O=C(CCCN1C(=O)C(c2ccccc2)Oc2cccnc21)NCc1ccccc1F (configuration not stated) | inconclusive [inhibitor, single point]
19 | CC(C)(C)C(=O)/C(=C/c1ccncc1)n1cncn1 | active: 7.38 µM
20 | O=C1C=C(O)CC(c2ccc(Cl)cc2)C1 (configuration not stated) | inactive
21 | CCCN(CC(=O)Nc1ccccc1OC)C(=O)c1cccc(S(=O)(=O)NCc2ccccc2)c1 | inconclusive [inhibitor, partial curve, poor fit]
22 | C/C(=N/NC(=O)c1cccs1)c1ccc(N2CCOCC2)cc1 | inactive
23 | CC(C)(Cl)C1Cc2cc3ccc(=O)oc3cc2O1 (configuration not stated) | inactive
24 | COc1cc2c(cc1OC)/C(=C/C(=O)c1ccc(F)cc1)NCC2 | inconclusive [inhibitor, partial curve, poor fit]

Row | SMILES | Potency
25 | COc1ccc(N(C(=O)c2cnccn2)C(C(=O)NCc2ccccc2)c2ccc(O)cc2)cc1 (configuration not stated) | inactive
26 | Cc1nc2ncnn2c(C)c1CCC(=O)NCc1ccccc1 | inactive
27 | Cc1csc(NC(=S)Nc2cccc(Cl)c2)n1 | inconclusive [inhibitor, single point]
28 | Cc1ccc(NC2=C/C(=N/S(=O)(=O)c3cccs3)c3ccccc3C2=O)cc1 | inconclusive [inhibitor, full curve, poor fit]
29 | Cc1cccc(NC(=O)c2onc3c2CCCC3)n1 | inactive
30 | COc1ccc(C(=O)Nc2ccc(Br)cc2F)cc1S(=O)(=O)N1CCCC1 | inconclusive [inhibitor, single point]
31 | Clc1ccc(CSc2snnc2-c2ccccc2)cc1 | active: 13.1 µM
32 | CC(=O)N1C(=O)N(C(C)=O)C2C1N(C(C)=O)C(=O)N2C(C)=O (configuration not stated) | inconclusive [inhibitor, partial curve, poor fit]
33 | COc1cc(CNCc2ccccn2)ccc1OCc1ccc(Cl)cc1Cl | inconclusive [inhibitor, single point]
34 | Oc1ccc(Br)cc1CNc1cccc2cccnc12 | inconclusive [inhibitor, single point]
35 | COc1ccc(Nc2nccc(N(C)C)c2C#N)cc1 | inactive
36 | COc1ccccc1NS(=O)(=O)c1ccc(C)c(C(=O)NCC(c2ccco2)N2CCCCC2)c1 (configuration not stated) | inconclusive [inhibitor, partial curve]
37 | COc1cc(C(=O)O/N=C(\N)Cc2ccc([N+](=O)[O-])cc2)cc(OC)c1OC | inconclusive [inhibitor, partial curve, poor fit]
38 | Cn1c(=O)n(C)c2cc(/C=C(/C#N)C(=O)NCc3ccco3)ccc21 | inactive
39 | Cn1nnnc1Sc1ncnc2scc(-c3cc4ccccc4o3)c12 | active: 4.15 µM
40 | O=C1C(=O)N(Cc2cccnc2)C(c2cccc([N+](=O)[O-])c2)/C1=C(\O)c1ccc2c(c1)OCCO2 (configuration not stated) | inactive
41 | CCCN1CCc2c(sc(NC(=O)c3ccc(S(=O)(=O)N(C)c4ccccc4)cc3)c2C(=O)NC)C1 | active: 3.29 µM
42 | COc1ccc(N2CCN(C(=O)CCc3ccc(S(=O)(=O)NC(C)(C)C)cc3)CC2)cc1 | inconclusive [inhibitor, partial curve]
43 | CN1C(=O)C(C)(C)c2cc(S(=O)(=O)N3CCN(c4cccc(Cl)c4)CC3)ccc21 | inconclusive [inhibitor, partial curve, poor fit]
44 | O=C(Nc1ccc2c(c1)OCO2)N1CCN(C(=O)C2CCCO2)CC1 (configuration not stated) | inactive
45 | CCC(=O)OCCNc1nc(-c2ccccc2)nc2ccccc12 | inactive
46 | COC(=O)c1c(-c2c(Cl)cccc2Cl)noc1NC(=O)NN1CCOCC1 | active: 13.1 µM
47 | O=S1(=O)C=C(Oc2ccc3ccccc3c2)c2ccccc21 | inconclusive [inhibitor, partial curve]
48 | S=C(Nc1ccc(Cl)cc1)NC1CC2CCC(C1)N2Cc1ccccc1 (configuration not stated) | active: 3.29 µM

Row | SMILES | Potency
49 | CCN(CC)C(=O)CSc1nnc(-c2c[nH]c3ccccc23)o1 | inconclusive [inhibitor, partial curve, poor fit]
50 | COc1ccc(NC(=O)C(NC(=O)Cc2cccs2)c2ccccc2)cc1 (configuration not stated) | inactive
51 | O=S(=O)(Cc1ccccc1)c1cnc2ccccc2n1 | active: 10.4 µM
52 | CC(CCc1ccc(O)cc1)NCC(O)c1ccc(O)cc1 (configuration not stated) | inconclusive [inhibitor, partial curve, poor fit]
53 | Cn1c(NC2CCCCC2)cc(=O)n(C)c1=O | inconclusive [inhibitor, full curve, poor fit]
54 | Cc1cccc(NC(=O)c2nc[nH]c2C(=O)N[C@@H](C)C(=O)OCc2ccccc2)c1 | inconclusive [inhibitor, partial curve, poor fit]
55 | Clc1ccc([C@H](Cn2ccnc2)OCc2c(Cl)cccc2Cl)c(Cl)c1 | active: 6.42 µM
56 | CCOc1ccc(NC(=O)CN2CCCC2c2cccs2)cc1S(=O)(=O)N1CCCC1 (configuration not stated) | active: 11.7 µM
57 | CCOc1ccccc1NC(=O)c1nnn(-c2ccc3c(c2)OCCO3)c1N | inactive
58 | C[C@H]1CCCC(=O)CCCCCc2cc(O)cc(O)c2C(=O)O1 | active: 4.15 µM
59 | CC(NC(=O)CN(c1cccc(C(F)(F)F)c1)S(C)(=O)=O)c1ccccc1 (configuration not stated) | inconclusive [inhibitor, single point]
60 | CCn1c(=O)c(CCC(=O)NCCN2CCOCC2)c(C)c2c(C)nn(-c3ccccc3)c21 | inconclusive [inhibitor, partial curve]
61 | NS(=O)(=O)c1ccc(N=NN2CCCCC2)cc1 | inactive
62 | COC(=O)C/C=C/[C@@H](C)[C@@H](/C=N/OC[C@@H](C)[C@H](OCc1ccccc1)C(C)C)NS(=O)(=O)c1ccc(C)cc1 | active: 13.1 µM
63 | CN(C)CCCNC(=O)/C(=C\c1ccc(-c2cccc([N+](=O)[O-])c2)o1)NC(=O)c1ccccc1 | inconclusive [inhibitor, single point]
64 | O=C(c1ccc(S(=O)(=O)N2CCCCC2)cc1)N1CCc2ccccc2C1 | inconclusive [inhibitor, partial curve]
65 | CC(=O)Nc1ccc(C2CN(C)CC2C(=O)c2ccc(Cl)cc2)cc1 (configuration not stated) | inconclusive [inhibitor, single point]
66 | CCCn1c(SCC(=O)c2cc(OC)ccc2OC)nnc1-c1ccco1 | inconclusive [inhibitor, single point]
67 | CCOC(=O)c1c(NC(=S)Nc2cccc(C)c2)sc2c1CC(C)(C)SC2 | inconclusive [inhibitor, single point]
68 | O=C(Nc1ccccc1OC(F)F)c1ccc(S(=O)(=O)N2CCCC2)cc1 | inconclusive [inhibitor, single point]
69 | CC(OC(=O)CN1C(=O)NC2(CCCC2)C1=O)c1ccc(F)cc1 (configuration not stated) | inactive
70 | Cc1ccccc1CSc1nsc(N)n1 | inactive
71 | CSc1ccc(/C=N/NC(=O)c2ccccc2Cl)cc1 | inactive
72 | CC12CCC(=O)N1C(C(=O)Nc1nnc(SCc3ccccc3)s1)CS2 (configuration not stated) | inactive
